In PubChem BioAssay (NCI) one finds GI50, TGI and outcome data, which are given here for 81 compounds.

Values joined by “and” are separate entries in the source; they are usually repeats but may differ in a detail not shown here. Identical values can stand only once.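 Five concentrations, 48 hours, 96-well plates. Here, GI50 denotes the concentration required for 50% inhibition of growth. TGI is the concentration that stops growth completely.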 Active and inactive are the calls of the source. Cut-off read from the data, not from the text of the source: active = GI50 below about 0.43 µM; inactive = the rest. Square brackets hold non-standard residues; d marks the D form. Peptide text beside a SMILES is read from it. * marks the point of attachment. Dolaproine = CO[C@@H]([C@@H]1CCCN1)[C@@H](C)C(=O)O; Dil = CC[C@H](C)[C@H](NC)[C@@H](CC(=O)O)OC; X2 = C[C@@H](N*)[C@@H](O)c1ccccc1; NMeV = CN[C@H](C(=O)O)C(C)C

The test has as its system NCI-H322M lung. The test is described as follows: NCI-60 cell line screen, 48 h.
In the case of `COc1cc(Nc2ccnc(NCCNc3ccnc4cc(Cl)ccc34)n2)cc(OC)c1`, the GI50 was 1890 nM and the TGI is 5.71 µM.

In turn, `COC(=O)C1=C(O)C(C(=O)OC)[C@@]2(O)[C@@H](C(=O)OC)C(c3ccc(OC(=O)/C=C/c4ccccc4)cc3)C[C@@H]1[C@@H]2C(=O)OC` (stereo partly specified) gave a TGI of 94.2 µM.

In the case of `CC/C=C\C/C=C\C/C=C\CCCCCCCC(=O)OC`, the TGI was greater than 100 µM.

As to `COc1ccc(/C(C)=C(\c2ccc(Cl)cc2)c2ccc(OCCN3CCCCC3)cc2)cc1`, the GI50 is 4940 nM and the TGI was determined as 12.3 µM.

As to `CCC[CH2][Sn]1([CH2]CCC)[O]CC(CN2CCCCC2)[O]1` (stereo unspecified), the GI50 was 1330 nM and the TGI was determined as 2.64 µM.

Regarding `O=C(Nc1ccc2[nH]c3ccccc3c2c1)c1ccccc1Cl`, the GI50 is 6440 nM and the TGI is greater than 100 µM.

As for `COc1ccc(/C=C2/SC(c3ccc(Cl)cc3)N(NC(=O)CCCCCCCCC(=O)NN3C(=O)/C(=C\c4ccc(OC)c(OC)c4)SC3c3ccc(Cl)cc3)C2=O)cc1OC` (stereo unspecified), the TGI is greater than 100 µM.

Regarding `COc1cc(-c2nccn2-c2ccc3ccccc3c2)cc(OC)c1OC`, the GI50 is 347 nM and the TGI was 57.6 µM.

As to `Cc1ccc(C(=O)N/N=C(\N=Nc2cccc([N+](=O)[O-])c2)c2ccc(N(C)C)cc2)cc1`, the TGI was greater than 100 µM.

The compound `CCO/C(O)=C(/C(=N)N1CCOCC1)C(=O)Nc1ccc(Cl)cc1` registered a TGI greater than 100 µM.

`CCOC(=O)C1OC(=O)CC1C1(C(=O)OCC)C=CC(=O)O1` (stereo unspecified) returned a TGI greater than 100 µM.

Take `COc1ccc2c(c1)n([O-])c1cc(C#N)ccc1[n+]2=O`: the TGI turned out to be 0.899 µM.

In turn, `Cc1ccccc1OC(C)C(=O)NN1C(=O)CC(=O)NC1=S` (stereo unspecified) came in with a TGI greater than 100 µM.

Take `NC(N)=NS(=O)(=O)c1ccc(NC(=O)c2cccc3c(=O)c4ccccc4[nH]c23)cc1`: the TGI is greater than 100 µM.

Take `N#CC1(Nc2ccc(Br)cc2)CCCC1`: the GI50 is greater than 100000 nM and the TGI was greater than 100 µM.

Compound `O=C(/C=C/c1ccc(O)c(O)c1)OCCCOC(=O)/C=C/c1ccc(O)c(O)c1` showed a TGI greater than 100 µM.

The compound `Cc1cn(C2CC(OC3CCCCO3)C(CO)O2)c(=O)[nH]c1=O` (stereo unspecified) yielded a TGI greater than 100 µM.

`CN(CCCNCc1ccccn1)Cc1ccccc1O`: the TGI is greater than 100 µM.

As to `CCOC(=O)C1=c2[nH]c3cccc4cccc(c43)n2C(=O)CC1`, the TGI is greater than 100 µM.

Consider `COC(=O)c1oc([N+](=O)[O-])c(Cl)c1Cl`, for which the TGI was found to be 26.5 µM.

The compound `CN=c1ssc(/N=C(\SC)N(C)C)[n+]1C` displayed a TGI greater than 100 µM.

For `CN(C)CCCNc1ccnc2cccc([N+](=O)[O-])c12`, the TGI was determined as 46.5 µM.

In turn, `O=[N+]([O-])c1ccc2c(c1)c1nn2CCCCOc2nn(c3ccc([N+](=O)[O-])cc23)CCCCO1` yielded a TGI greater than 100 µM.

`COC(=O)[C@]12CC[C@H]3CN(C(=O)OCc4ccccc4)[C@H]([C@H]31)[C@H](c1ccccc1)N2` gave a TGI greater than 100 µM.

In turn, `CC(=O)OCC1OC(N2C(=O)NC(=O)C3C=C4CCCCC4=CC32)C(OC(C)=O)C1OC(C)=O` (stereo unspecified) came in with a TGI greater than 100 µM.

In turn, `O=C1C(=O)c2cc([N+](=O)[O-])ccc2-c2ccc([N+](=O)[O-])cc21` had a TGI of 4.09 µM.

`c1csc(-c2cc(-c3ccsc3)c(-c3ccsc3)s2)c1`: the TGI was greater than 100 µM.

For `CC(C)(C)OC(=O)NCCC1SC2C=CC1C2` (stereo unspecified), the TGI was greater than 100 µM.

Turning to `CCOC(=O)[C@H]1O[C@@H]1C(=O)NC(CC(C)C)C(=O)NCCC(C)C` (stereo partly specified), the TGI is greater than 100 µM.

In the case of `COc1cc(C2C3=C(COC3=O)N(CCO)c3cc4c(cc32)OCO4)cc(OC)c1OC` (stereo unspecified), the GI50 was 1040 nM and 855 nM; the TGI is 12.5 µM and > 16.8 µM.

`O=S(=O)(c1ccc(Cl)cc1)c1ccccc1C1=NCCN1` displayed a TGI greater than 100 µM.

In the case of `CC(C)(C)c1ccc(O)c(CN(Cc2c(O)ccc3ccccc23)C2CCCCC2)c1`, the TGI worked out at 41.2 µM.

As to `C[CH2][Sn]([CH2]C)([O]C(=O)c1ccccc1F)[O]C(=O)c1ccccc1F`, the GI50 is greater than 77900 nM and the TGI was greater than 100 µM.

In the case of `N#Cc1c(N)c2c(c(-c3ccccc3)c1-c1ccccc1)C(=O)N(N)C2=O`, the TGI was greater than 100 µM.

Regarding `NC(N)=NN=C(c1ccccc1)c1ccccc1`, the GI50 is 5920 nM and the TGI was greater than 100 µM.

`CCCCCCCCCCc1c2nc(c(CCCCCCCCCC)c3ccc([nH]3)c(CCCCCCCCCC)c3ccc([nH]3)c(CCCCCCCCCC)c3nc1C=C3)C=C2` had a TGI greater than 100 µM.

For `C[C@]12CC[C@@H]3c4ccc(O)cc4CC[C@H]3[C@@H]1CC[C@@H]2NS(=O)(=O)c1ccc(Cl)cc1`, the GI50 is 10200 nM and the TGI stood at 22.8 µM.

In the case of `CC[C@H](C)[C@@H]([C@@H](CC(=O)N1CCC[C@H]1[C@H](OC)[C@@H](C)C(=O)N[C@H](C)[C@@H](O)c1ccccc1)OC)N(C)C(=O)[C@@H](NC(=O)[C@@H](NC)C(C)C)C(C)C` (H-[NMeV]V[Dil][Dolaproine]-X2), the GI50 is less than 5 nM and the TGI is greater than 100 µM.

As to `c1ccc2c(c1)nnn2CN1CCOCC1`, the TGI is greater than 100 µM.

On to `O=S1c2ccccc2N=C(c2cccc3ccccc23)CC1c1cccc2ccccc12` (stereo unspecified), for which the TGI was found to be 32.4 µM.

In the case of `CC1CCCc2sc3nc(NNC(=O)c4cnccn4)n(-c4ccccc4)c(=O)c3c21` (stereo unspecified), the GI50 is 354 nM and 234 nM; the TGI was greater than 100 µM.

As to `O=c1n(-c2ccc(Cl)c(Cl)c2)c(=O)n(-c2ccc(Cl)c(Cl)c2)c(=O)n1-c1ccc(Cl)c(Cl)c1`, the TGI was determined as 8.16 µM.

As for `Clc1ccc(COc2ccccc2/C=N/c2c(-c3ccco3)nc3ccccn23)c(Cl)c1`, the TGI was greater than 100 µM.

As to `O=C(CC1(O)C(=O)Nc2c(Cl)cc(Cl)cc21)c1ccc(Br)cc1` (stereo unspecified), the TGI is 30 µM.

The compound `C#Cc1cc(-c2nc3ccccc3s2)ccc1N` returned a TGI of 46 µM.

Take `COC(=O)C12C3C4(C(=O)OC)C1C1(C(=O)OC)C2C3(C(=O)OC)C41C(=O)N(C(C)C)C(C)C` (stereo unspecified): the TGI is greater than 100 µM.

Compound `O=C1CC[C@H](NC(=O)Cc2ccccc2)C(=O)N1` returned a TGI greater than 1250 µM.

For `CCCC[C@H](NC(=O)[C@H]1CCCCN1C)C(=O)N(C)[C@H](C[C@@H](OC(C)=O)c1nc(C(=O)N[C@@H](Cc2ccccc2)C[C@H](C)C(=O)OCC)cs1)C(C)C`, the GI50 was less than 3.33 nM and the TGI was greater than 33.3 µM.

The compound `C/C=C(/C)C(=O)O[C@H]1CCN2CC=C(COC(=O)[C@@](O)([C@H](C)OC)C(C)(C)O)[C@H]12` gave a TGI greater than 100 µM.

In turn, `Clc1cc(OC23CC4CC(CC(C4)C2)C3)nc(Cl)n1` displayed a TGI greater than 100 µM.

`CC1CCC2C(C)(C)CC3(C)CCC1C23O` (stereo unspecified) showed a TGI of 58.3 µM.

Regarding `Cc1cn(CCCC2=NCCCN2)c(=O)[nH]c1=O`, the TGI is greater than 100 µM.

The compound `NNC1=Nc2ccc(Cl)cc2C(=S)N2CSCC12` (stereo unspecified) returned a TGI greater than 100 µM.

`CCCCCCc1cc2c(C)c(C)c(=O)oc2cc1OCCCOc1cc2oc(=O)c(C)c(C)c2cc1CCCCCC` showed a TGI greater than 100 µM.

On to `CCNCCCNc1c2ccccc2nc2ccccc12`, for which the TGI was 8.09 µM.

The compound `Cc1cc(OCC(=O)O)c(Cl)cc1Cl` showed a TGI greater than 100 µM.

For the compound `CCCCC(CCCCCC(CCCC)C1NC(C)Cc2cc(OC)c(OC)cc21)C1NC(C)Cc2cc(OC)c(OC)cc21` (stereo unspecified), the GI50 is 2010 nM and the TGI turned out to be 3.88 µM.

The compound `Cc1ncc([N+](=O)[O-])n1CCn1ccnc1[N+](=O)[O-]` showed a TGI greater than 100 µM.

In the case of `OCCCC(O)(c1ccccc1)c1ccccc1`, the TGI is greater than 100 µM.

Consider `Oc1c(Br)cc(Br)c2ccc(Cn3cc(-c4ccc(C(F)(F)F)cc4)nn3)nc12`, for which the GI50 was 14400 nM and the TGI was 27.5 µM.

Take `CN(C)CCn1c(=O)c2ccc(NCCCN(C)CCCNc3ccc4c(=O)n(CCN(C)C)c(=O)n5c6ccccc6c(=O)c3c45)c3c(=O)c4ccccc4n(c1=O)c23`: the TGI came out at 1.4 µM.

For `COc1nc(N)c(N=O)c(OCc2ccccc2)n1`, the TGI was greater than 10 µM.

Regarding `O=C1/C(=C/c2ccccc2)CN(C(=O)CCN2CCC(=NO)CC2)C/C1=C\c1ccccc1`, the GI50 was 1630 nM and the TGI was found to be 3.03 µM.

Compound `C[C@H](C(=O)C12CC3CC(CC(C3)C1)C2)[C@H](O)c1ccccc1` registered a TGI of 82.4 µM.

For the compound `C[C@@H](NC(=O)CNC(=O)OC(C)(C)C)C(=O)N[C@@H](Cc1ccccc1)C(=O)OCc1ccccc1` (HELM PEPTIDE1{[CC(C)(C)OC(=O)[*:2]].G.[dA].F.[c1ccc(CO[*:1])cc1]}$$$$V2.0), the TGI was greater than 100 µM.

As for `O=C(O)c1ccc(C(=O)Nc2cccc3ccccc23)c(C(=O)O)c1`, the TGI was greater than 100 µM.

For `O=C1/C(=C/c2ccco2)N=C(c2ccccc2)N1c1ccc(S(=O)(=O)Nc2nccs2)cc1`, the TGI was greater than 100 µM.

In the case of `ClCc1ccccc1Cn1cnc2c(Cl)nc(Cl)nc21`, the GI50 was 1460 nM and the TGI stood at 3.17 µM.

`COc1cc2c(c(OC)c1OC)-c1ccc(SC)c(=O)cc1[C@@H](NCc1ccccc1[N+](=O)[O-])CC2` had a TGI greater than 100 µM.

Turning to `CCCCCCCCCCCCc1ccsc1-c1ccc(-c2ccc(-c3sc(-c4cc(CCCCCCCCCCCC)c(-c5ccc(-c6ccc(-c7sccc7CCCCCCCCCCCC)s6)s5)s4)cc3CCCCCCCCCCCC)s2)s1`, the TGI was greater than 100 µM.

`CC1(C)OCC(C2OC3OC(C)(C)OC3C2N)O1` (stereo unspecified) had a TGI greater than 100 µM.

As for `C=CC(=O)C#CC#CC/C=C\CCCCCCC`, the TGI is greater than 20.6 µM and the outcome was inactive.

Compound `[N-]=[N+]=Nc1cc(=O)n(-c2ccccc2)c2ccccc12` registered a TGI greater than 100 µM.

As to `COc1cc2c(/C=C3/C(=O)Nc4c3ccc3ccccc43)c(Cl)n(C)c2cc1C`, the GI50 is less than 34.3 nM and the TGI was 11.5 µM.

On to `CC[N+](CC)=c1cc2oc3cc(N(C)C)ccc3nc-2cc1C`, for which the GI50 was 1160 nM and the TGI worked out at 4.41 µM.

Turning to `COc1ccc(C(C)c2cc3c(cc2O)OCO3)cc1` (stereo unspecified), the TGI turned out to be 54.3 µM.

`CCOC(=O)C(COS(C)(=O)=O)(COS(C)(=O)=O)C(=O)OCC` came in with a TGI greater than 100 µM.

Regarding `C[C@]12CC[C@@H]3c4cc(Br)c(O)c(Br)c4CC[C@H]3[C@@H]1CC(Br)C2=O` (stereo partly specified), the TGI worked out at 35.8 µM.

Compound `Cc1cc(Cl)nc(Nc2nc3ccccc3[nH]2)n1` yielded a TGI greater than 100 µM.

Consider `COc1cc(C=C(c2ccc(N(C)C)cc2)c2ccc(N(C)C)cc2)c2ccccc2c1OC`, for which the TGI was greater than 100 µM.

The compound `O=C1/C(=C\c2cccc(Oc3ccccc3)c2)SC(c2ccccc2)N1c1ccccc1Cl` (stereo unspecified) registered a TGI greater than 100 µM.
